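48-hour exposure; five concentrations; linearly interpolated endpoints. GI50 marks 50% less growth. The concentration for full growth arrest is given as TGI.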
System: NCI-H322M lung
Assay: DTP human tumour cell line panel, 48 h

Compound | GI50 [µM] | TGI [µM]
Cc1ccc2c(c1)nc(-c1ccccc1)n2CC(=O)N=Nc1c(O)[nH]c2ccc(Cl)cc12 | 1.88 | 4.02
O=C(CSc1nc2sc3c(c2c(=O)n1-c1ccc(Cl)cc1)CCCC3)N/N=C/C=C/c1ccccc1 | 21.5 | > 100

— PubChem BioAssay (NCI)
